Assay results as given in paper PMC3411107.
Positions count from the first letter of the chain named. Numbers in names are those of the source. No constants are given. Whether binding was seen depends on the method and setting. In cells and extracts the contact can be indirect. Some entries that bind do so weakly or less than the wild type. Sequences can lack the tags named with a protein.

Protein sequences, listed by entry. Tags and fused reporters are not part of them. Lines headed by an entry give the natural chain unless they say otherwise; changes in a name come on top.
UniProt Q15042: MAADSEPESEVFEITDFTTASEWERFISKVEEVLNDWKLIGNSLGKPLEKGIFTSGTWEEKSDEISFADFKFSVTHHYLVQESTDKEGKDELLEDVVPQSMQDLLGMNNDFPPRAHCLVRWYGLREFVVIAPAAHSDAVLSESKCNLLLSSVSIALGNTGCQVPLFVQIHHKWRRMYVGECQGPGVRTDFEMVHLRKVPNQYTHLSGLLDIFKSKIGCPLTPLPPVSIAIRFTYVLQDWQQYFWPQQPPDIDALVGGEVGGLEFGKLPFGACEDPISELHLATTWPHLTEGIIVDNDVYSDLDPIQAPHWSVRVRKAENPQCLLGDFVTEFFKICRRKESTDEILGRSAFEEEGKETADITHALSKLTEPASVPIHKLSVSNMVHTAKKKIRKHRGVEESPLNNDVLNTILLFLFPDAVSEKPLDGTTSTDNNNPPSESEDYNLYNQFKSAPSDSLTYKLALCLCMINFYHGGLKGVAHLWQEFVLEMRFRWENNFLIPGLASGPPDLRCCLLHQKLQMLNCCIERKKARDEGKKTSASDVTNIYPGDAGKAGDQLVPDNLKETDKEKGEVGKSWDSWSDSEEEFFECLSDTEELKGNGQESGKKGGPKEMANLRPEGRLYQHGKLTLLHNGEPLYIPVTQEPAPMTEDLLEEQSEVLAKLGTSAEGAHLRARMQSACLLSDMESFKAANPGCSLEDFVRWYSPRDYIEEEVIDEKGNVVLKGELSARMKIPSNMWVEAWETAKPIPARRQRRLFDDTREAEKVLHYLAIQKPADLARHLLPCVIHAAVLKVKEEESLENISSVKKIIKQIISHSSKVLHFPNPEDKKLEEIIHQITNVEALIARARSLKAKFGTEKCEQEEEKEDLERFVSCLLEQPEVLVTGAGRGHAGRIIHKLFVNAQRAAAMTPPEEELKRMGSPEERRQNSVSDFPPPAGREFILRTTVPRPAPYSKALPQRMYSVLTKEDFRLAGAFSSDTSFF
UniProt Q9H2M9: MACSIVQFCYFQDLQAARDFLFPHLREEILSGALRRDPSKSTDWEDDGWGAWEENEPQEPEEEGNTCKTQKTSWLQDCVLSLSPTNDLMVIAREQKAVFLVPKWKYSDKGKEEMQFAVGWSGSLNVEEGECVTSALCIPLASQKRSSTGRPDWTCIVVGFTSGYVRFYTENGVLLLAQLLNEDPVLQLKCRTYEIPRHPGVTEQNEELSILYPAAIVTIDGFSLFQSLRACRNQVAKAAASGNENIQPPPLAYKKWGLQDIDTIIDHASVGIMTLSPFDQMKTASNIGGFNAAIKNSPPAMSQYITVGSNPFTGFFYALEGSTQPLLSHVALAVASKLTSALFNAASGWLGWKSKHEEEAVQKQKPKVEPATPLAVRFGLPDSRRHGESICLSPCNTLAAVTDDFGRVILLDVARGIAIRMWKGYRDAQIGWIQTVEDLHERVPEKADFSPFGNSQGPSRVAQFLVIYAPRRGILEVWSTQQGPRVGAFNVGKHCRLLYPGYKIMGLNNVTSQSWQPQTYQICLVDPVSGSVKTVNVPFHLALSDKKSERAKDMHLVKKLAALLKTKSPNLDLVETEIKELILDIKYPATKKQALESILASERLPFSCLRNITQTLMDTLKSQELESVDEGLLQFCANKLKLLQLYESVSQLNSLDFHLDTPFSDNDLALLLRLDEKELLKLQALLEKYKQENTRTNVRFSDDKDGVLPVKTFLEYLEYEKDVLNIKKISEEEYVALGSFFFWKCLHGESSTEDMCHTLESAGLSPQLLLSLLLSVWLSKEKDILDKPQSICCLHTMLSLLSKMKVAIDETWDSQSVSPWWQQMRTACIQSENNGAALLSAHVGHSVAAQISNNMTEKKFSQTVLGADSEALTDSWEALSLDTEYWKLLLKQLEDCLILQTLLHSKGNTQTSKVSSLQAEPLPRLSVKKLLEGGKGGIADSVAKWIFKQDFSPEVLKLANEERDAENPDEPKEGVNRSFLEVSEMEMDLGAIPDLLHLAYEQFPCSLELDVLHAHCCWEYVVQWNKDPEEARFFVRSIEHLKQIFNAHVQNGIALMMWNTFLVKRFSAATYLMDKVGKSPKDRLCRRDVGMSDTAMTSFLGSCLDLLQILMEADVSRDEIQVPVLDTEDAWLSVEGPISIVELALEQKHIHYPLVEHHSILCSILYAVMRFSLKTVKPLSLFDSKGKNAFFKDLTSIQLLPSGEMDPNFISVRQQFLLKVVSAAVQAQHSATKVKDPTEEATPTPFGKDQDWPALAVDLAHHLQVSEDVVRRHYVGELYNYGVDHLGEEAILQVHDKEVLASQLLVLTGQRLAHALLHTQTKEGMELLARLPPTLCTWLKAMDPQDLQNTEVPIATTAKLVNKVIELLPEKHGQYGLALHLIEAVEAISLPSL

Experiments:
[1] = target: T1, REEP4-GFP with Glu in the place of Ser152 (human) (UniProt Q9H6H4); assay: co-IP; REEP-GFP proteins isolated from lysates (2.5 mg) of transfected HEK293 cells with GFP-Trap agarose (anti-GFP IP); co-purified endogenous RAB3GAP1, RAB3GAP2 and 14-3-3 detected by immunoblotting
T1 sequence: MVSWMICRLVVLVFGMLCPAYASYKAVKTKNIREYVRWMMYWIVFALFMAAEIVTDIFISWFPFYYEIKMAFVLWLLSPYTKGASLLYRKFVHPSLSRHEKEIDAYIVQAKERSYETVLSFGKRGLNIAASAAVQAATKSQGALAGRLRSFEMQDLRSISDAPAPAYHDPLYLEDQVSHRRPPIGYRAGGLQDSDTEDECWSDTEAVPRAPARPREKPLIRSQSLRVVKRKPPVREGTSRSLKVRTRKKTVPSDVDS

[2] = target: T2, REEP4-GFP with Asp in the place of Ser152 (human) (UniProt Q9H6H4); assay: as above
T2 sequence: T1 sequence with E152D

[3] = target: T3, REEP4-GFP (wild-type) (human) (UniProt Q9H6H4); assay: as above
T3 sequence (chain, phosphoserine at 152; phosphoserine at 224 in phorbol ester-stimulated cells): T1 sequence with E152S

REEP4-S152A-GFP (human) = target: T4, REEP4-S152A-GFP (human) (UniProt Q9H6H4); assay: as above
T4 sequence: T1 sequence with E152A

[4] = target: T5, Ser224Ala-substituted REEP4 (REEP4-GFP) (human) (UniProt Q9H6H4); assay: as above
T5 sequence: T1 sequence with E152S, S224A

[5] = target: RAB3GAP1–RAB3GAP2 heterodimer (human (endogenous in HEK293)) (UniProt Q15042+Q9H2M9); assay: co-IP; endogenous RAB3GAP1 immunoprecipitated from HEK293 cells transfected to express wild-type or mutant REEP4-GFP; immunoprecipitates blotted; control with pre-immune antibodies

RAB3GAP1–RAB3GAP2 heterodimer (from UniProt Q15042 1-981; Q9H2M9 1-1393) (complex)
binding [1]: binds
binding [2]: binds
binding [3]: binds
binding (REEP4-S152A-GFP (human)): no binding
binding [4]: binds

B1: REEP4-GFP (wild-type) (protein, UniProt Q9H6H4 1-257)
chain: T1 sequence with E152S
modifications: phosphoserine at 152; phosphoserine at 224 in phorbol ester-stimulated cells
binding [5]: binds

B2: Ser224Ala-substituted REEP4 (REEP4-GFP) (protein, UniProt Q9H6H4 1-257)
chain: T1 sequence with E152S, S224A
binding [5]: binds

B3: REEP4-S152A-GFP (protein, UniProt Q9H6H4 1-257)
chain: T1 sequence with E152A
binding [5]: no binding
